Here are results for 40 molecules from US11178870B2 (priority 2017, dated 2021).

In one assay the test system is Magnaporthe grisea. Type of assay: in vivo. The note with it: Blast on rice.
The test system of a further assay is Phytophthora infestans. Type of assay: in vivo. The note with it: Late blight on tomato.

Consider `CCn1c(-c2c(F)cc(F)cc2F)c(-c2c(Cl)cnn2C)cc(Cl)c1=O` [Compound 22], for which, in the assay on Magnaporthe grisea, the “Test A control value” is “H (H shows the control value more than 50%)”. Moreover, the “Test F control value” in the assay on Phytophthora infestans is listed as “L (L shows the control value of 50% or less)”.

With `CCn1c(-c2ccc(F)cc2Cl)c(-c2ocnc2C)cc(Cl)c1=O` [Compound 38], the “Test A control value” with Magnaporthe grisea is given as “H (H shows the control value more than 50%)”. Further, in the assay with Phytophthora infestans, the “Test F control value” is “L (L shows the control value of 50% or less)”.

In the case of `CCn1c(-c2c(F)cc(OC)cc2F)c(-c2cnco2)cc(Br)c1=O` [Compound 90], the “Test A control value” with Magnaporthe grisea was “L (L shows the control value of 50% or less)”. Also, the “Test F control value” with Phytophthora infestans is reported as “L (L shows the control value of 50% or less)”.

For `CCn1c(-c2c(F)cc(OC)cc2F)c(-c2cccnc2Cl)cc(Br)c1=O` [Compound 81], the “Test A control value” in the assay on Magnaporthe grisea is listed as “H (H shows the control value more than 50%)”. Moreover, the “Test F control value” in the assay with Phytophthora infestans is “L (L shows the control value of 50% or less)”.

With `CCn1c(-c2c(F)cc(F)cc2F)c(-c2ocnc2Br)cc(Br)c1=O` [Compound 97], the “Test A control value” in the assay with Magnaporthe grisea is “H (H shows the control value more than 50%)”. Further, the “Test F control value” with Phytophthora infestans is given as “L (L shows the control value of 50% or less)”.

`CCn1c(-c2c(F)cccc2F)c(-c2cnc(Cl)o2)cc(Cl)c1=O` [Compound 87]: in the assay on Magnaporthe grisea, the “Test A control value” was “L (L shows the control value of 50% or less)”. Further, the “Test F control value” in the assay on Phytophthora infestans was “L (L shows the control value of 50% or less)”.

For `CCn1c(-c2c(F)cc(F)cc2F)c(-n2nc(C)c(Br)c2C)ccc1=O` [Compound 76], in the assay on Magnaporthe grisea, the “Test A control value” is on record as “H (H shows the control value more than 50%)”. Besides, the “Test F control value” in the assay on Phytophthora infestans was “L (L shows the control value of 50% or less)”.

Consider `CCN1C(=O)CCC(n2cccn2)=C1c1c(F)cccc1F` [Compound 30], for which, in the assay with Magnaporthe grisea, the “Test A control value” is recorded as “L (L shows the control value of 50% or less)”. Moreover, the “Test F control value” in the assay on Phytophthora infestans is recorded as “L (L shows the control value of 50% or less)”.

`CCn1c(-c2ccccc2Cl)c(-n2cc(C)cn2)cc(Br)c1=O` [Compound 180]: in the assay on Magnaporthe grisea, the “Test A control value” is on record as “H (H shows the control value more than 50%)”. The “Test F control value” in the assay with Phytophthora infestans is given as “L (L shows the control value of 50% or less)”.

With `COc1cc(F)c(-c2c(-n3cc(Cl)cn3)cc(Cl)c(=O)n2CC(F)(F)F)c(F)c1` [Compound 122], the “Test A control value” with Magnaporthe grisea is “H (H shows the control value more than 50%)”. For the same molecule, the “Test F control value” in the assay with Phytophthora infestans is “L (L shows the control value of 50% or less)”.

With `CCn1c(-c2ccc(F)cc2Cl)c(-c2cnco2)cc(Cl)c1=O` [Compound 32], in the assay with Magnaporthe grisea, the “Test A control value” is given as “L (L shows the control value of 50% or less)”. Further, the “Test F control value” in the assay with Phytophthora infestans was “L (L shows the control value of 50% or less)”.

With `CCn1c(-c2c(F)cc(F)cc2F)c(-n2cc(Cl)c(C)n2)cc(Br)c1=O` [Compound 144], the “Test A control value” in the assay on Magnaporthe grisea is listed as “H (H shows the control value more than 50%)”. Also, the “Test F control value” in the assay on Phytophthora infestans was “L (L shows the control value of 50% or less)”.

Consider `CCn1c(-c2c(F)cc(F)cc2F)c(-n2cc(I)cn2)cc(Cl)c1=O` [Compound 160], for which, in the assay with Magnaporthe grisea, the “Test A control value” is reported as “L (L shows the control value of 50% or less)”. For the same molecule, the “Test F control value” with Phytophthora infestans was “L (L shows the control value of 50% or less)”.

Turning to `CCn1c(-c2ccccc2Cl)c(-n2cc(Cl)cn2)ccc1=O` [Compound 169], in the assay on Magnaporthe grisea, the “Test A control value” was “L (L shows the control value of 50% or less)”. Besides, in the assay on Phytophthora infestans, the “Test F control value” is listed as “L (L shows the control value of 50% or less)”.

In the case of `CCn1c(-c2c(F)cc(OC)cc2F)c(-n2cc(Br)cn2)cc(Br)c1=O` [Compound 78], in the assay with Magnaporthe grisea, the “Test A control value” is “H (H shows the control value more than 50%)”. For the same molecule, the “Test F control value” in the assay on Phytophthora infestans was “L (L shows the control value of 50% or less)”.

For `Cn1c(-c2c(F)cccc2F)c(-c2cccnc2Cl)cc(Br)c1=O` [Compound 106], the “Test A control value” in the assay on Magnaporthe grisea is recorded as “H (H shows the control value more than 50%)”. The “Test F control value” with Phytophthora infestans was “H (H shows the control value more than 50%)”.

In the case of `CCn1c(-c2c(F)cc(F)cc2F)c(-n2ncc(C)c2Cl)ccc1=O` [Compound 82], in the assay with Magnaporthe grisea, the “Test A control value” is on record as “H (H shows the control value more than 50%)”. For the same molecule, the “Test F control value” in the assay on Phytophthora infestans was “L (L shows the control value of 50% or less)”.

On to `O=c1c(Br)cc(-c2cccnc2Cl)c(-c2c(F)cc(F)cc2F)n1CC(F)F` [Compound 69], for which, in the assay with Magnaporthe grisea, the “Test A control value” is on record as “H (H shows the control value more than 50%)”. In the assay on Phytophthora infestans, the “Test F control value” is recorded as “L (L shows the control value of 50% or less)”.

For the molecule `CCn1c(-c2c(F)cc(OC)cc2F)c(-c2cccnc2Cl)cc(Cl)c1=O` [Compound 80], in the assay with Magnaporthe grisea, the “Test A control value” was “H (H shows the control value more than 50%)”. The “Test F control value” in the assay on Phytophthora infestans is on record as “L (L shows the control value of 50% or less)”.

Consider `CCn1c(-c2c(F)cc(OC)cc2F)c(-c2c(Cl)cnn2C)cc(Cl)c1=O` [Compound 29], for which, in the assay on Magnaporthe grisea, the “Test A control value” was “H (H shows the control value more than 50%)”. The “Test F control value” in the assay on Phytophthora infestans is “L (L shows the control value of 50% or less)”.

On to `CCn1c(-c2c(F)cc(F)cc2F)c(-n2cccc2)cc(Cl)c1=O` [Compound 132], for which, in the assay with Magnaporthe grisea, the “Test A control value” was “H (H shows the control value more than 50%)”. Also, in the assay with Phytophthora infestans, the “Test F control value” was “L (L shows the control value of 50% or less)”.

`CCn1c(-c2c(F)cc(F)cc2F)c(-n2cncn2)cc(Br)c1=O` [Compound 47]: the “Test A control value” with Magnaporthe grisea was “L (L shows the control value of 50% or less)”. The “Test F control value” in the assay on Phytophthora infestans is given as “L (L shows the control value of 50% or less)”.

Regarding `CCn1c(-c2c(F)cccc2F)c(-c2ocnc2I)cc(Cl)c1=O` [Compound 74], in the assay on Magnaporthe grisea, the “Test A control value” is given as “H (H shows the control value more than 50%)”. Further, the “Test F control value” with Phytophthora infestans was “L (L shows the control value of 50% or less)”.

For `CCn1c(-c2c(F)cc(F)cc2F)c(-n2cc(Cl)c(C)n2)ccc1=O` [Compound 141], in the assay with Magnaporthe grisea, the “Test A control value” is “H (H shows the control value more than 50%)”. Also, the “Test F control value” in the assay on Phytophthora infestans is reported as “L (L shows the control value of 50% or less)”.

For `CCn1c(-c2c(F)cc(F)cc2F)c(-n2cc(C=O)cn2)cc(Cl)c1=O` [Compound 123], the “Test A control value” in the assay on Magnaporthe grisea is recorded as “L (L shows the control value of 50% or less)”. The “Test F control value” in the assay with Phytophthora infestans is given as “L (L shows the control value of 50% or less)”.

For the molecule `CCn1c(-c2c(F)cc(OC)cc2F)c(-c2oc(Cl)nc2Cl)cc(Cl)c1=O` [Compound 114], the “Test A control value” in the assay on Magnaporthe grisea is listed as “H (H shows the control value more than 50%)”. Besides, in the assay on Phytophthora infestans, the “Test F control value” was “L (L shows the control value of 50% or less)”.

With `CCn1c(-c2c(F)cccc2F)c(-c2cnc(OC)o2)cc(Cl)c1=O` [Compound 130], the “Test A control value” with Magnaporthe grisea is on record as “L (L shows the control value of 50% or less)”. Also, the “Test F control value” in the assay with Phytophthora infestans is “L (L shows the control value of 50% or less)”.

On to `CCn1c(-c2c(F)cccc2F)c(-n2cccn2)ccc1=O` [Compound 31], for which, in the assay with Magnaporthe grisea, the “Test A control value” is “L (L shows the control value of 50% or less)”. Besides, in the assay on Phytophthora infestans, the “Test F control value” is reported as “L (L shows the control value of 50% or less)”.

With `CCn1c(-c2c(F)cccc2F)c(-c2ocnc2F)cc(Cl)c1=O` [Compound 51], the “Test A control value” in the assay with Magnaporthe grisea is on record as “H (H shows the control value more than 50%)”. The “Test F control value” with Phytophthora infestans was “L (L shows the control value of 50% or less)”.

Take `CCn1c(-c2ccccc2Cl)c(-n2ncc(C)c2Cl)cc(Cl)c1=O` [Compound 179]: in the assay on Magnaporthe grisea, the “Test A control value” is “H (H shows the control value more than 50%)”. The “Test F control value” in the assay on Phytophthora infestans is listed as “L (L shows the control value of 50% or less)”.

As for `CCn1c(-c2c(F)cccc2F)c(-n2cc(Cl)cn2)cc(Cl)c1=O` [Compound 53], in the assay with Magnaporthe grisea, the “Test A control value” was “H (H shows the control value more than 50%)”. Besides, the “Test F control value” with Phytophthora infestans is “L (L shows the control value of 50% or less)”.

Regarding `CCn1c(-c2c(F)cc(OC)cc2F)c(-c2ocnc2Cl)cc(Cl)c1=O` [Compound 115], in the assay on Magnaporthe grisea, the “Test A control value” is recorded as “H (H shows the control value more than 50%)”. Also, in the assay with Phytophthora infestans, the “Test F control value” is on record as “L (L shows the control value of 50% or less)”.

Consider `CCn1c(-c2c(F)cc(F)cc2F)c(-n2cccn2)cc(Cl)c1=O` [Compound 84], for which the “Test A control value” in the assay with Magnaporthe grisea was “H (H shows the control value more than 50%)”. The “Test F control value” in the assay on Phytophthora infestans was “L (L shows the control value of 50% or less)”.

For the molecule `CCn1c(-c2ccc(F)cc2Br)c(-n2cc(Cl)cn2)ccc1=O` [Compound 164], the “Test A control value” in the assay on Magnaporthe grisea was “H (H shows the control value more than 50%)”. Moreover, the “Test F control value” in the assay on Phytophthora infestans is listed as “L (L shows the control value of 50% or less)”.

`Cn1c(-c2c(F)cc(F)cc2F)c(-c2cccnc2Cl)cc(Cl)c1=O` [Compound 100]: the “Test A control value” with Magnaporthe grisea was “H (H shows the control value more than 50%)”. Also, the “Test F control value” in the assay with Phytophthora infestans is on record as “L (L shows the control value of 50% or less)”.

On to `CCn1c(-c2c(F)cc(F)cc2F)c(-n2cc(C(F)(F)F)cn2)cc(Cl)c1=O` [Compound 155], for which, in the assay with Magnaporthe grisea, the “Test A control value” was “L (L shows the control value of 50% or less)”. Moreover, in the assay on Phytophthora infestans, the “Test F control value” is listed as “L (L shows the control value of 50% or less)”.

Consider `CCn1c(-c2ccc(F)cc2C)c(-n2cc(Cl)cn2)ccc1=O` [Compound 168], for which, in the assay with Magnaporthe grisea, the “Test A control value” is recorded as “H (H shows the control value more than 50%)”. In the assay on Phytophthora infestans, the “Test F control value” was “L (L shows the control value of 50% or less)”.

With `O=c1c(Cl)cc(-n2cc(Cl)cn2)c(-c2c(F)cc(F)cc2F)n1CC(F)(F)F` [Compound 121], the “Test A control value” in the assay with Magnaporthe grisea is on record as “H (H shows the control value more than 50%)”. For the same molecule, in the assay with Phytophthora infestans, the “Test F control value” is recorded as “L (L shows the control value of 50% or less)”.

In the case of `CCn1c(-c2c(F)cc(F)cc2F)c(-n2cc(OC)cn2)cc(Cl)c1=O` [Compound 128], in the assay on Magnaporthe grisea, the “Test A control value” is listed as “L (L shows the control value of 50% or less)”. Besides, the “Test F control value” with Phytophthora infestans is “L (L shows the control value of 50% or less)”.

As to `CCn1c(-c2c(F)cc(OC)cc2F)c(-n2cc(Br)c(C)n2)cc(Br)c1=O` [Compound 151], in the assay on Magnaporthe grisea, the “Test A control value” was “H (H shows the control value more than 50%)”. In addition, in the assay on Phytophthora infestans, the “Test F control value” was “L (L shows the control value of 50% or less)”.
